In all, about 410,000 compounds went through this assay and about 6,400 (1.6%) were called active. Inconclusive means that the source gave no clear call. Such entries were picked first, then a sample of the others. Calls follow the shape of the dose curve; as a rule, active = well fitted inhibition curve with a large enough effect; inconclusive = small, poorly fitted or top-dose-only effect; inactive = no such curve, though single readings can be large or run the other way. No potency is given beside an inconclusive call; the fits are too rough.
These molecules were tested against Glucagon-like peptide 1 receptor (Homo sapiens) (UniProt P43220) (assay: qHTS of GLP-1 Receptor Inverse Agonists (Inhibition Mode)). Settings: HEK293 GLP-1R CRE-luciferase, luminescence, 24 h, GLP-1R form is constitutively active; activity change, negative = inhibition: at 38.3 µM (top of the series) unless noted.
In short: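 Inverse agonists were sought by their lowering of basal cAMP reporter luciferase output in HEK293 cells stably carrying constitutively active human GLP-1R, after 24 h compound treatment.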
% is scaled to controls: 0 for no effect and ±100 for the full control effect; potency is read from the fitted curve at half-maximal effect; tags tell the direction and shape of the fitted curve.
Also: nearly all actives have a fitted effect of over 55% in size.

Chain of UniProt P43220 (P43220 whole entry, looked up): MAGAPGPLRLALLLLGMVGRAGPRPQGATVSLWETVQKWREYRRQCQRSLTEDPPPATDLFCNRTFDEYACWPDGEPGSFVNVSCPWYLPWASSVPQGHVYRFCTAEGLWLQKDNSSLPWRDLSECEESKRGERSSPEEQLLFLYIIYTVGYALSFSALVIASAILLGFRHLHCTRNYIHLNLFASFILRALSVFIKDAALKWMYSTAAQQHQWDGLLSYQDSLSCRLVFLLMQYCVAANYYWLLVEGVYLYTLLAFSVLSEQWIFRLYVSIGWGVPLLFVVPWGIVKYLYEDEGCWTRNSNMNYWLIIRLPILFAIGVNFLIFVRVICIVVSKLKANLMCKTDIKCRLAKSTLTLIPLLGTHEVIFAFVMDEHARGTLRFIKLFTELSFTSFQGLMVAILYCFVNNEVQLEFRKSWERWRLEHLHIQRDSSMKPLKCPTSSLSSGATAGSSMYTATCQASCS

Row | Compound | Potency | activity change, negative = inhibition
1 | Cc1cc(C)cc(NC(=O)C(OC(=O)c2ccc(NC(=O)CC#N)cc2)c2ccccc2)c1 (configuration not stated) | inconclusive [inhibitor, single point] | 
2 | O=C1C(Cl)=C(Nc2cccc(O)c2)C(=O)N1Cc1ccccc1 | inconclusive [inhibitor, single point] | 
3 | CCCCSCCCNC(=O)c1cn(CC)c2ccc(S(=O)(=O)N3CCCCCC3)cc2c1=O |  | inactive: 2.46%
4 | c1ccc2c(c1)OCCOCCOc1ccccc1OCCOCCO2 |  | inactive: -25.1%
5 | CC(=O)c1cccc(NC(=O)C2Cc3c(-c4ccc(Cl)cc4)ccnc3O2)c1 (configuration not stated) | inconclusive [inhibitor, single point] | 
6 | COc1cc2cnc(-c3ccsc3)c(-c3ccc(F)cc3)c2cc1OC | inconclusive [inhibitor, single point] | 
7 | O=C(NCCS(=O)(=O)c1ccc(Br)cc1)c1ccc(Cl)cc1 | inconclusive [inhibitor, single point] | 
8 | Clc1ccc(Cn2ncc3c(NCc4ccco4)ncnc32)c(Cl)c1 | inconclusive [inhibitor, full curve, poor fit] | 
9 | Cc1cc(OCCn2cnc3ccccc3c2=O)cc(C(C)C)c1 | inconclusive [inhibitor, partial curve, poor fit] | 
10 | Cc1nc(CSc2ccc(Cl)cc2)cc(NCc2ccccc2)n1 | inconclusive [inhibitor, partial curve, poor fit] | 
11 | CN(CCOc1ccc(Cl)cc1)C(=O)c1cc([N+](=O)[O-])ccc1N1CCOCC1 | inconclusive [inhibitor, single point] | 
12 | CC(=C/c1ccc(C(C)C)cc1)/C=N/NC(=O)c1ccncc1 | inconclusive [inhibitor, single point] | 
13 | CN(CC(=O)Nc1ccc(Cl)cc1)C(=O)CNC(=O)Cc1cccc2ccccc12 | inconclusive [inhibitor, partial curve, poor fit] | 
14 | O=C(NC(=S)Nc1ccc(Oc2ccccc2)cc1)c1ccc(Cl)cc1 | inconclusive [inhibitor, partial curve, poor fit] | 
15 | COc1ccc(C(C)=O)cc1COC(=O)CCNS(=O)(=O)c1ccc(C(C)=O)cc1 |  | inactive: 6.25%
16 | COC(=O)c1ccccc1NC(=S)NC(C)=O |  | inactive: -1.57%
17 | CCc1ccc(NC(=O)C(C)Sc2ccc(S(=O)(=O)N3CCN(C)CC3)cn2)cc1 (configuration not stated) | inconclusive [inhibitor, partial curve, poor fit] | 
18 | Cc1ccc(S(=O)(=O)Nc2cc(-c3ccccc3)nn2C)cc1Cl | inconclusive [inhibitor, single point] | 
19 | O=C(NCC(c1ccco1)N1CCc2ccccc2C1)c1cccc(Br)c1 (configuration not stated) | inconclusive [inhibitor, single point] | 
20 | CCOC(=O)c1ccccc1NC(=O)n1ncc2cc(Cl)ccc21 |  | inactive: 9.63%
21 | CCc1cccc(C)c1NC(=O)c1cc(S(=O)(=O)N2CCOCC2)cn1C |  | inactive: -4.66%

Row | Compound | Potency | activity change, negative = inhibition
22 | Cc1ccc(S(=O)(=O)N2CCCC2CNC(=O)C(=O)Nc2ccccc2)cc1 (configuration not stated) | inconclusive [inhibitor, single point] | 
23 | COc1cccc(/C=N/Nc2ncccc2[N+](=O)[O-])c1OC | inconclusive [inhibitor, full curve, poor fit] | 
24 | O=C(NCc1ccc(C(F)(F)F)cc1)C1CC(c2c(Cl)cccc2Cl)=NO1 (configuration not stated) | inconclusive [inhibitor, partial curve, poor fit] | 
25 | CCn1nnc(-c2ccccc2NS(=O)(=O)c2ccc(S(=O)(=O)N3CCCCCC3)cc2)n1 | inconclusive [inhibitor, partial curve, poor fit] | 
26 | Cc1noc(C)c1S(=O)(=O)Nc1ccc(C(=O)Nc2ccc(Br)cc2)cc1 | inconclusive [inhibitor, partial curve, poor fit] | 
27 | COC(=O)c1cc(OC)c(OC)cc1NC(=S)Nc1cccc(Cl)c1 |  | inactive: 6.05%
28 | O=C1/C(=C/c2ccccc2F)SC(=S)N1CCC(=O)N1CCCCC1CCO (configuration not stated) | inconclusive [inhibitor, partial curve, poor fit] | 
29 | CCC(C)c1ccc(O)c(NC(=O)c2cccnc2)c1 (configuration not stated) |  | inactive: 4.7%
30 | COc1ccc(C(=O)C2CCN(CC(=O)Nc3ccc(OC)cc3OC)CC2)cc1 | inconclusive [inhibitor, single point] | 
31 | Cc1ccc(C(=O)C2CCN(CC(=O)NC3CCCC3)CC2)cc1 | inconclusive [inhibitor, single point] | 
32 | COC(=O)c1ccc(NC(=S)NC(=O)C2CCC2)cc1 |  | inactive: -14.9%
33 | COc1ccc(/C=C2\SC(=O)N(CCCC(=O)Nc3ccc(C(=O)O)cc3)C2=O)cc1 | inconclusive [inhibitor, full curve, poor fit] | 
34 | O=C(CCc1ccccc1)NC1(Cc2ccccc2)CCN(CCCc2ccccc2)C1=O (configuration not stated) | inconclusive [inhibitor, partial curve, poor fit] | 
35 | COc1cc(C(=O)N(CCN(C)C)CC2CCCN(Cc3ccccc3F)C2)ccc1C (configuration not stated) | inconclusive [inhibitor, partial curve, poor fit] | 
36 | Brc1cccc(Nc2nc(-c3cccnc3)cs2)c1 | inconclusive [inhibitor, partial curve] | 
37 | O=C(NCc1ccccn1)c1cccn1-c1ncc(C(F)(F)F)cc1Cl |  | inactive: -21.9%
38 | CCOc1ccc2c(c1)C(c1ccc(C)cc1)=NNC(c1ccc(C)cc1)=N2 | inconclusive [inhibitor, partial curve, poor fit] | 
39 | Cc1ccc2ccccc2c1C(O)c1ncc(-c2ccc(C(F)(F)F)cc2)[nH]1 (configuration not stated) | inconclusive [inhibitor, single point] | 
40 | O=C(Cc1ccccc1F)Nc1nc(-c2ccc(F)c(F)c2)cs1 | inconclusive [inhibitor, partial curve, poor fit] | 
41 | CC#CCN(Cc1ccco1)C(=O)c1ccc(OC2CCN(Cc3ccccn3)CC2)cc1 | inconclusive [inhibitor, partial curve, poor fit] | 
42 | CC(=O)N1N=C(c2ccc(Br)cc2)CC1c1cn(C)c2ccccc12 (configuration not stated) | inconclusive [inhibitor, single point] | 

Row | Compound | Potency | activity change, negative = inhibition
43 | COc1cccc(C=NN(C)c2c([N+](=O)[O-])cc(C(F)(F)F)cc2[N+](=O)[O-])c1O | inconclusive [inhibitor, single point] | 
44 | COc1ccc(S(=O)(=O)N2CCN(C/C=C/c3ccccc3)CC2)cc1F | inconclusive [inhibitor, single point] | 
45 | CC(Oc1ccccc1)C(=O)N1CCN=C1SCc1cccc(F)c1 (configuration not stated) | inconclusive [inhibitor, single point] | 
46 | COc1ccc(-c2ccc(C(C)=O)cc2)cc1[C@H]1[C@@H]2C=CCC[C@@]2(C)C(=O)N1Cc1ccccc1 |  | inactive: -27.3%
47 | CCN(C(=O)CSc1nc2ccccc2n1CC(=O)NCc1ccc(OC)cc1)c1ccccc1 | inconclusive [inhibitor, single point] | 
48 | Cc1cc(SCC(=O)N2CCN(C(=O)c3ccco3)CC2)c(C)cc1Br | inconclusive [inhibitor, single point] | 
49 | CCOC(=O)c1ccc(NC(=O)CN2c3ccccc3S(=O)(=O)c3ccccc32)cc1 | inconclusive [inhibitor, single point] | 
50 | CC1(C)Cc2cccc(OCC(=O)NCCc3ccccc3)c2O1 | inconclusive [inhibitor, single point] | 
51 | CC1CCN(CC(O)COC2CC(C)CCC2C(C)C)CC1 (configuration not stated) |  | inactive: -21.7%
52 | CCOC(=O)c1cc(-c2ccccc2)n(CCC(=O)NC2CCCCC2)c1C |  | inactive: 10.5%
53 | OC(CNCc1ccccc1Cl)COc1ccc(F)cc1 (configuration not stated) | inconclusive [inhibitor, partial curve, poor fit] | 
54 | Cc1ccc(CNC(=O)CNC(=S)N(Cc2ccccc2)Cc2cccnc2)cc1 | inconclusive [inhibitor, single point] | 
55 | Cc1ccc2[nH]c3c(c2c1)CN(C(=O)CN1CCCc2ccccc21)CC3 | inconclusive [inhibitor, partial curve, poor fit] | 
56 | Cc1cccc(-n2c(SCC(N)=O)nc3c(c2=O)C2(CCCCC2)Cc2ccccc2-3)c1 | inconclusive [inhibitor, full curve, poor fit] | 
57 | COC(=O)c1c(N)sc(C(=O)NCCc2ccccc2)c1C | inconclusive [inhibitor, full curve, poor fit] | 
58 | C=CCNC(=O)NC(=O)CN1C(=O)NC(c2ccccc2)(c2ccccc2)C1=O | inconclusive [inhibitor, partial curve, poor fit] | 
59 | Cc1ccc(C23CC4CC(CC(CC(=O)N5CCOCC5)(C4)C2)C3)cc1 | inconclusive [inhibitor, partial curve, poor fit] | 
60 | Cc1[nH]n(-c2ccccc2)c(=O)c1N=Nc1ccccc1O | inconclusive [inhibitor, partial curve, poor fit] | 
61 | COc1cc2c3nnc(-c4ccc(F)cc4)c-3cn(Cc3ccccc3F)c2cc1OC | inconclusive [inhibitor, single point] | 
62 | COC(=O)c1ccccc1NC(=O)CNc1cc(Cl)ccc1N1CCOCC1 | inconclusive [inhibitor, partial curve, poor fit] | 

From PubChem BioAssay AID624417 (National Center for Advancing Translational Sciences (NCATS), 2012)
